From PMC12136788
This is one part of the list.

B1: chr1:64777895:64778004:+|CDS|ENSG00000162437|unk|total|mutant (ssRNA)
RNA: GGGAGUUCUACAGUCCGACGAUCGGAUUUGUGGAAUACAUGAAAAAGGACUUUGCUGCAAAGGCCCGACUGGAGCUAUUGGGCCGACAGUUGGGAGCAUCAGCACUCUUUGCACAAUGGAUGGAUGUUAAUCUAUUGGCUUCACAACAGAGGAUUGAGCAUCA
B2: ENSG00000136451:be:win_401|CDS|ENSG00000136451|bound_else_gene|NA|bound_elsewhere_windowed (ssRNA)
RNA: GGGAGUUCUACAGUCCGACGAUCGCAUCUUGUCAACAGUCACUACAUCUUCCUCGGGCACCAACCCCAGUAGCAGUGCCAGCACCACAGCUAUGCCAGUGACCCAGUCUGUCAAGAAACCCAGUAAGCCUGUCAAGAAGAACCCAACAGAGGAUUGAGCAUCA
B3: ENSG00000123684:stop:overlap|stop_codon|ENSG00000123684|stop_codon|NA|stop_codon (ssRNA)
RNA: GGGAGUUCUACAGUCCGACGAUCCAUUUUUGUCAGGCUAUAUGUGGUACAACAUCAUUCAGUAUUUUUACCAUUGCCUGUUUUAGGAAUUGACGUGGACUUGUCAAGGUCACCGUAGGAGUUCAGACUUUCUUUCAUAAGUGUCAACAGAGGAUUGAGCAUCA
B4: chr1:205620050:205620151:-|CDS|ENSG00000158711|unk|FALSE|unique (ssRNA)
RNA: GGGAGUUCUACAGUCCGACGAUCGCCAAUGGAACUUCCAGAGAAUUUGUCACUGGAGCCUAAAGACCAGGAUUCAGUCUUGCUAGAAAAGGACAAAGUAAAUAAUUCAUCAAGAUCCAAGAAACCCAAAGGGUUAGAACUGGCCAACAGAGGAUUGAGCAUCA
B5: chr12:121847077:121847190:-|CDS|ENSG00000158104|unk|FALSE|unique (ssRNA)
RNA: GGGAGUUCUACAGUCCGACGAUCAAAAACCUGCAGUUCCACCGCUUCUGGUCCGUGGAUGACACGCAGGUGCACACGGAAUAUAGCUCUCUGCGAUCCAUUGUGGUGGCCAACUAUGAAGAGUCCAUCAAGAUGCCCAUCAAUCAACAGAGGAUUGAGCAUCA
B6: chr11:61865769:61866452:+|3pUTR|ENSG00000134824|msi1|total|mutant (ssRNA)
RNA: GGGAGUUCUACAGUCCGACGAUCUGCAGCCUGGUCACCCGGCAUCACCCCCGCUUUGGUUCUUCAGAUGCUCUUGGGGUUCACCGGGGCAGGUCCCCGUCGGGCAGGGCCCCUGACCCUCCCGGCCUGGCUUCACUCUCCCUGCAACAGAGGAUUGAGCAUCA
B7: chr3:125228010:125228111:-|3pUTR|ENSG00000163848|msi1|FALSE|unique (ssRNA)
RNA: GGGAGUUCUACAGUCCGACGAUCAGUUCUCUUCAUAUUUCAUAACUACAUUUCAAUAAUUCUAAACUUUCUACAUUGAUUUUUAGAUACUUAUUUUUCAAGCUUGGUUUCUCAGCUGAUCAGAUGAAUUUAUUCAACUUCAAUCAACAGAGGAUUGAGCAUCA
B8: chr14:102081487:102081564:-|3pUTR|ENSG00000080824|msi1_unk|FALSE|overlapping (ssRNA)
RNA: GGGAGUUCUACAGUCCGACGAUCGAAGAUAAGAUUUCUGUCUACUAAGUGAUGCUGUGAUACCUUAGGCACUAAAGCAGAGCUAGUAAUGCUUUUUGAGUUUCAUGUUGGUUUAUUUUCACAGAUUGGGGUAACGUGCACUGUCAACAGAGGAUUGAGCAUCA
B9: chr8:47773456:47773635:-|3pUTR|ENSG00000253729|msi1_unk|total|mutant (ssRNA)
RNA: GGGAGUUCUACAGUCCGACGAUCGUUUUUUCCUUUCAUUUUAUUCUCUUCCCGUUUUGACAUUUUAUGACCGAUUUGCUCUCCCGAAGGAAACGUCUUUAUUCCGGAGGGCAAAAAUUUUGGUCACCGCAUUCACUUUUGCUACAACAGAGGAUUGAGCAUCA
B10: chr7:106091418:106091523:-|3pUTR|ENSG00000008282|msi1|FALSE|unique (ssRNA)
RNA: GGGAGUUCUACAGUCCGACGAUCUUUACACCUUAAGCCUUAACAUGUAUCUUCAUUCAGAAAACAGUUAUAUUGUCAUACCAUAGUAGGAAGAAAAACCUUUAUUUGGAAUAUACACUACUGUAAGUUUGUACAGAUCAUAUACAACAGAGGAUUGAGCAUCA
B11: chr3:125012942:125013043:-|CDS|ENSG00000173706|msi1|FALSE|bound_elsewhere (ssRNA)
RNA: GGGAGUUCUACAGUCCGACGAUCGCCUCUUAUGACCACUCCUGGCACCCUGUCAAGCACAGCAUCUCUGGUCACUGGCCCUAUAGCCGUACAGACUACAGCUGGAAAACAGCUCUCGCUGACCCAUCCUGAAAUACUAGUUCCCAACAGAGGAUUGAGCAUCA
B12: chr8:116854276:116854437:-|CDS|ENSG00000164754|unk|total|mutant (ssRNA)
RNA: GGGAGUUCUACAGUCCGACGAUCAGGAAGCUAAUUGUUGACAGUGUCAAAGAGUUGGACCGCAAGACAAUCCGAGCCCAACUCCGUGAUUAUUCAGAUAUUGUUACUACUUUGGAUCUGGCACCGCCCACCAAGAAAUUGAUGCAACAGAGGAUUGAGCAUCA
B13: chr7:73597181:73597713:-|CDS|ENSG00000009950|control|control|control (ssRNA)
RNA: GGGAGUUCUACAGUCCGACGAUCGCCCAGAGGCAAGCCCCCCGCCCCAUCCCCUAGGGGACAGAAAGCCAGCCCCCCUACCUUAGCCCCUGCCACUGCCAGUCCCCCCACCACUGCGGGGAGCAACAACCCCUGCCUCACACACAACAGAGGAUUGAGCAUCA
B14: chr7:93099512:93101327:-|three_prime_utr|ENSG00000205413|control|control|control (ssRNA)
RNA: GGGAGUUCUACAGUCCGACGAUCUCUCAGUACCCAUUUAAUUUUUUUGGACUCAAGAUCUAUGCUUUAAACCGGCAAGGUUAUAGAUACAGCCUCUAGCUCUUCAGAUCUGUACAUGCAGUAUUUAAUUUCCUCUUAAACAUGCAACAGAGGAUUGAGCAUCA

Target: MSI1 full-length (mouse, UniProt Q61474 1-362)
Chain of UniProt Q61474 (Q61474 whole entry): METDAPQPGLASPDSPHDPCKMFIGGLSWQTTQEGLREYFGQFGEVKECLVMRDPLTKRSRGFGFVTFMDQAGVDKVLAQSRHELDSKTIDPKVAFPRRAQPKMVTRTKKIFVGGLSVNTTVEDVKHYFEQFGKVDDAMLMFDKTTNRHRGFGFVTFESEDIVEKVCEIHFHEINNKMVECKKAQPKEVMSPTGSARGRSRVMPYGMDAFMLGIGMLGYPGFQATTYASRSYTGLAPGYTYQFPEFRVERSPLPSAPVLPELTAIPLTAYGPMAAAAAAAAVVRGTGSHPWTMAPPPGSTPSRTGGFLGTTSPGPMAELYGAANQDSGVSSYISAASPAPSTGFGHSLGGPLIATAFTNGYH
Experiment: nsRBNS (natural sequence RNA bind-n-seq); RBNS binding buffer (assumed for nsRBNS): 25 mM Tris pH 7.5, 150 mM KCl, 3 mM MgCl2, 0.01% Triton X-100, 500 ug/ml BSA, 20 U/ml SUPERase-In, 4 C; UNK is unkempt and MSI1 is Musashi-1; names of the RNAs are library labels; protein concentration not given here; high values mean tight binding

Question: B1 was tested. Which binding signal did it give?
Answer: 0.272 enrichment R

Question: For B2, which binding signal is on record?
Answer: 0.559 enrichment R

Question: With B3 as the binder, how does the binding signal read?
Answer: 0.394 enrichment R

Question: Which binding signal does the source give for B4 here?
Answer: 1.02 enrichment R

Question: How did the binding signal turn out when B5 was run?
Answer: 0.296 enrichment R

Question: Which binding signal does the source give for B6 here?
Answer: 0.458 enrichment R

Question: Which binding signal does the source give for B7 here?
Answer: 5.53 enrichment R

Question: Which binding signal does the source give for B8 here?
Answer: 0.492 enrichment R

Question: For B9, which binding signal is on record?
Answer: 0.727 enrichment R

Question: B10 was tested. Which binding signal did it give?
Answer: 0.951 enrichment R

Question: B11 was tested. Which binding signal did it give?
Answer: 0.543 enrichment R

Question: For B12, which binding signal is on record?
Answer: 0.397 enrichment R

Question: With B13 as the binder, how does the binding signal read?
Answer: 1.15 enrichment R

Question: B14 was tested. Which binding signal did it give?
Answer: 4.6 enrichment R
